The record followed here is PubChem BioAssay AID1346428 (National Center for Advancing Translational Sciences (NCATS), 2018).

Values joined by “and” are separate entries in the source; they are usually repeats but may differ in a detail not shown here. Equal entries are not always repeated. The campaign covered roughly 48,000 compounds. About 1,200 (2.5%) were called active. Roughly 2% stayed inconclusive and do not appear here.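 How the source made its calls: active means activation of at least 60% and not above a set upper limit (about 1 call in 100 departs from these limits); inconclusive means activation of 40% to 60%, or above that upper limit; inactive means activation under 40%.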 The list shows a part of the results.

UniProt O75388, sequence (O75388 whole entry, looked up): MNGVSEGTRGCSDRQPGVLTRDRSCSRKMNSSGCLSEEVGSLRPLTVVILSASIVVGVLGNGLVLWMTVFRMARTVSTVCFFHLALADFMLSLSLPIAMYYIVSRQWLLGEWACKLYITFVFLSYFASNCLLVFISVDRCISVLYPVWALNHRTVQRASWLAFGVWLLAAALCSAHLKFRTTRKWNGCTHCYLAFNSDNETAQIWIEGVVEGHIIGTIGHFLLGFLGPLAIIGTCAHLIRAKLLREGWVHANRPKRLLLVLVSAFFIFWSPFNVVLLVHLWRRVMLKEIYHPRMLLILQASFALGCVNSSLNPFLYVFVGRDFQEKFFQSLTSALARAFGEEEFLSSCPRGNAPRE

The target in the assay is Probable G-protein coupled receptor 32 (Homo sapiens) (UniProt O75388). As to the kind of experiment: qHTS for Agonists of Human Resolvin D1 Receptor DRV1. Further: 0% is about no effect. As to conditions: CHO-K1 GPR32 beta-arrestin PathHunter luminescence, 90 min; at 76.9 µM; hits give high values; zero percent set by DMSO-only wells. Summed up:
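PathHunter beta-arrestin recruitment in CHO-K1 cells stably expressing ProLink-tagged GPR32. Cells were exposed to compound for 90 min at 37 C, then chemiluminescence was read after 1 h detection at ambient temperature; DMSO served as basal control.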
As for `Cc1ccccc1-c1nc(CS(=O)(=O)CC(=O)Nc2cc(Cl)cc(Cl)c2)c(C)o1`, the activation was inactive: 17.4%.
As for `Cc1cccc(OCC(=O)N(Cc2ccccc2)c2ccccn2)c1`, the figure is inactive: -14.9%; as for `CS(=O)(=O)N1CCCc2cc(C(=O)Nc3cccc(C(F)(F)F)c3)ccc21`, inactive: 2.28%.
As for `COc1ccc(C2C(=O)N(C3CCCCCC3)CC(=O)N2CCC2=CCCCC2)cc1` (stereo not given), the figure is inactive: -35.6%; as for `COC(=O)c1cnc(N2CCN(c3ccc(F)cc3)CC2)c2ccccc12`, inactive: -15.9%; as for `COc1ccc(CCNC(=O)c2ccc3c(Cl)c4c(nc3c2)CCCC4)c(OC)c1`, inactive: -7.4%.
As for `CC1CCC(NC(=O)c2ccc(CS(=O)(=O)c3c(Cl)cccc3Cl)o2)CC1` (stereo not given), the figure is inactive: 43.6%.
For `CC(=O)c1ccc(N2CCN(c3ncnc4onc(C)c34)CC2)cc1`, the activation was inactive: 3.9%.
As for `COC(=O)c1ccc(CSc2nc3c(c(=O)[nH]2)CCC3)cc1`, the figure is inactive: 7.96%.
For the molecule `O=C(NCCN1CCCCC1)c1ccc(Cn2c(SCc3cccc(F)c3)nc3cccnc32)cc1`, the activation is inactive: -4.95%.
For the molecule `COc1ccc(OCC(=O)Nc2ccccc2C(=O)OCc2cc(=O)n3nc(C)sc3n2)cc1`, the activation is inactive: -7.69%.
Turning to `COc1cc(-c2nc(-c3cccc(Cl)c3)c(-c3ccccc3)[nH]2)cc(OC)c1OC`, the activation was inactive: -26.3%.
As for `Cc1ccc(NC(=O)Cn2c(=O)n(Cc3ccc4c(c3)OCO4)c(=O)c3ccccc32)c(C)c1`, the figure is inactive: -27.8%.
As for `CCc1ccccc1NC(=O)Cn1c(=O)n(Cc2ccco2)c(=O)c2sc3ccccc3c21`, the activation is inactive: -2%.
As for `Cc1ccc2nc(N3CCN(c4cccc(C)c4C)CC3)c3nncn3c2c1`, the figure is inactive: 0.304%; as for `Cc1ccc(C)c(N2CCN(S(=O)(=O)c3cnc(N)nc3)CC2)c1`, inactive: -19.6%; as for `CC(C)CCn1c(=O)c2sccc2n2c(CCCC(=O)NC3CCC(C)CC3)nnc12` (stereo not given), inactive: -11.3%.
As for `CCOC(=O)c1ccc2c(c1)N(Cc1ccccc1)C(=O)c1ccccc1S2`, the figure is inactive: -37%.
As for `COc1cccc(-c2cc(C(=O)Nc3ccn(Cc4ccc(C)cc4)n3)no2)c1`, the figure is inactive: 49.5%; as for `CC(C)c1ccc2oc(-c3ccc(NC(=O)c4cc5ccccc5o4)cc3)nc2c1`, inactive: 9.17%.
Consider `COc1ccc(CCNC(=O)CCSCc2ccccc2Cl)cc1OC`, for which the activation was inactive: -13.2%.
As for `O=C(NCCS(=O)(=O)N1CCN(c2ccc(F)cc2)CC1)C1CC(=O)N(c2ccc(F)cc2)C1` (stereo not given), the figure is inactive: -3.2%; as for `CCCCc1ccc(NC(=O)CSc2nc3ccccc3nc2N2CCOCC2)cc1`, inactive: -6.28%; as for `CCc1cccc(C)c1NC(=O)Cn1ccn(Cc2ccc(Cl)cc2)c(=O)c1=O`, inactive: -9.4%.
As for `Cc1cc(CCCOc2c(C)cc(-c3noc(C(F)(F)F)n3)cc2C)on1`, the figure is inactive: 20.8%; as for `Cc1ccc(-c2[nH]c(-c3ccccc3)nc2SCC(=O)NCC2CCCO2)cc1` (stereo not given), inactive: -19.6%.
As for `COc1ccc(NC(=O)CN(C)S(=O)(=O)c2cnc[nH]2)cc1Cl`, the figure is inactive: 2.88%; as for `c1ccc(-c2nnc(CN3CCN(c4ccccc4)CC3)o2)cc1`, inactive: -10.9%; as for `COc1ccc(-c2noc(COc3ccc(Br)cc3C)n2)cc1OC`, inactive: -8.18%.
On to `Cc1ccc2c(c1C)NC(=O)CC2c1ccc(Cl)cc1Cl` (stereo not given), for which the activation was inactive: 22.6%.
As for `CCc1ccc(OCC(=O)Nc2ccc(-c3nc4ncccc4o3)cc2)cc1`, the figure is inactive: -3.29%; as for `O=C(O)c1ccc(NC(=O)c2cn(-c3ccccc3)nc2-c2ccc(Br)cc2)cc1`, inactive: -3.03%; as for `OCCOCCN1CCN(C(c2ccccc2)c2ccc(Cl)cc2)CC1` (stereo not given), inactive: 8.67%.
As for `O=C(CC1N=C2c3ccccc3N=C(SCc3cccc(F)c3)N2C1=O)NCc1ccc2c(c1)OCO2` (stereo not given), the figure is inactive: 19%; as for `CCC(O)c1cc2c(cc1NC(=O)c1ccccc1F)OCCO2` (stereo not given), inactive: 1.78%.
As for `Cc1ccc(OCC(=O)Nc2cccc(C(=O)OCc3cc(=O)n4nc(C)sc4n3)c2)cc1`, the figure is inactive: -2.55%; as for `COc1cccc(CNC(=O)C(=O)Nc2ccc3nc4n(c(=O)c3c2)CCCCC4)c1`, inactive: 13.5%.
Consider `Cc1ccc2nc(Cl)c3cc(C(=O)NC4CCC(C)CC4)sc3c2c1` (stereo not given), for which the activation was inactive: -19.4%.
On to `Cc1ccc(N2CCN(C(=O)c3cc(S(=O)(=O)N4CCCCC4)c[nH]3)CC2)c(C)c1`, for which the activation was inactive: 16.1%.
As for `Cc1ccc(-c2cc(C(=O)Oc3ccccc3Cl)no2)cc1C`, the figure is inactive: 7.41%.
Consider `CCN1CCN(C(=O)Cn2c(-c3cccs3)cc3ccccc32)CC1`, for which the activation is inactive: -13.6%.
In the case of `O=C(O)CNC(=O)c1ccccc1I`, the activation was inactive: -6.56%.
As for `COc1nc(-c2ccccc2)ccc1-c1noc(-c2ccccc2Br)n1`, the figure is inactive: -22%; as for `COc1cccc(OCc2cc(=O)n3c(-c4ccccc4)csc3n2)c1`, active: 121%.
As for `COc1ccc(CCNC(=O)c2ccc3c(c2)N(Cc2ccccc2F)C(=O)c2ccccc2S3=O)cc1OC` (stereo not given), the figure is inactive: -10.8%; as for `CCN(CC)S(=O)(=O)c1ccc(C(=O)NCCSc2c(-c3ccc(C)cc3)[nH]c3ccccc23)cc1`, inactive: -15.1%; as for `COc1ccc(N2CCN(S(=O)(=O)CCNC(=O)COc3ccccc3F)CC2)cc1`, inactive: -13.8%.
As for `O=C(CN1C(=O)COc2ccc(S(=O)(=O)N3CCCC3)cc21)N1CCN(c2cccc(C(F)(F)F)c2)CC1`, the activation was inactive: 17.7%.
As for `CCOc1ccccc1CNC(=O)CCc1c(C)nn(-c2ccc(N3CCOCC3)nn2)c1C`, the figure is inactive: 0%; as for `CN1C(=O)c2ccccc2Sc2ccc(NC(=O)NCc3cccc(Cl)c3)cc21`, inactive: 1.42%; as for `Cc1ccc(C(=O)Oc2c(S(=O)(=O)c3ccccc3)c(C)nn2-c2ccccc2)cc1`, inactive: 2.13%.
As for `CCOC(=O)CSc1nc(-c2ccc(Cl)cc2)cc(C(F)(F)F)c1C#N`, the figure is inactive: 49.4%; as for `Cc1ccccc1N1C(=O)c2cc(S(N)(=O)=O)c(Cl)cc2NC1C` (stereo not given), inactive: -14.9% and inactive: 3.94%; as for `Cc1ccccc1C(=O)NCCc1csc(-c2ccc(C(F)(F)F)cc2)n1`, inactive: 2.98%.
As for `COc1ccc(-n2c(-c3ccc(C)cc3)cc3c2CC(C)(C)CC3=O)c(OC)c1`, the figure is inactive: -23.7%; as for `Cc1ccc(Cc2nc3ccccc3nc2SCC(=O)N2CCCc3ccccc32)cc1`, inactive: -17.2%; as for `Cc1ccc(NC(=O)CCNS(=O)(=O)c2cccc3nonc23)cc1Cl`, inactive: -26.4%.
As for `Cc1cn2c(=O)cc(COC(=O)c3cccc(NC(=O)COc4ccccc4C)c3)nc2s1`, the activation was inactive: -9.11%.
As for `Cc1ccc(CNC(=O)CSc2c3c(nc4cc(Cl)ccc24)CCCC3)cc1`, the figure is inactive: -7.58%; as for `CCCNC(=O)C(C)n1nc(C)c2c(C)n(-c3ccccc3)nc2c1=O` (stereo not given), inactive: -12.6%; as for `Cc1c(-c2nc(-c3ccccc3F)no2)nnn1-c1cc(F)ccc1F`, inactive: -2.99%.
As for `O=c1oc2cc(O)ccc2cc1-c1nnc(Nc2ccccc2F)s1`, the figure is inactive: 6.21%; as for `CC[C@H](NC(C)C)[C@H](O)c1ccc(O)c2[nH]c(=O)ccc12`, inactive: -15.3%; as for `COc1ccc2nc(NC(=O)c3nc(SCc4ccccc4F)ncc3Cl)sc2c1`, inactive: -7.83%.
Turning to `Cc1cc(C)n(-c2nc3cc(Cl)ccc3nc2Nc2ccc(CC(=O)O)cc2)n1`, the activation was inactive: 2.8%.
For `COc1ccccc1CNC(=O)C1CCN(S(=O)(=O)c2ccc3c(ccn3C)c2)CC1`, the activation is inactive: -14.6%.
As for `CCCn1c(=O)c2[nH]c(-c3ccc(S(=O)(=O)O)cc3)nc2n(CCC)c1=O`, the figure is inactive: 4.65%; as for `Cc1cccc(NC(c2ccccc2C)c2ccc3ccc(C)nc3c2O)n1` (stereo not given), inactive: -20.5%; as for `CCNC(=O)C1CCN(c2nnc(C)c3c(C)n(-c4ccc(OC)cc4)nc23)CC1`, inactive: -3.78%.
As for `COC(=O)c1c(-c2cccs2)csc1NC(=O)c1ccc(OC)c(OC)c1`, the figure is inactive: 5.03%.
In the case of `Cc1ccc2c(c1)NC(=O)c1cccnc1O2`, the activation was inactive: -9.66%.
As for `Cc1ccc(-c2nc(CS(=O)(=O)CC(=O)NCCc3ccccc3)c(C)o2)cc1`, the figure is inactive: -3.19%.
As for `COc1ccc(S(=O)(=O)c2c(SC)nn(CC(=O)Nc3cccc(C)c3C)c2N)cc1`, the figure is inactive: 6.37%; as for `COc1ccc(CNC(=O)Cn2nc(N3CCN(c4ccccc4)CC3)ccc2=O)c(OC)c1`, inactive: 9.78%; as for `O=C(Nc1ccc(OCc2cc(=O)n3ccccc3n2)cc1)c1ccccc1Cl`, inactive: -16.1%.
As for `CC1=C(C(=O)Nc2ccccc2)C(c2ccncc2)n2nc(SCc3ccccc3F)nc2N1` (stereo not given), the figure is inactive: 1.14%; as for `CCC(C)Nc1oc(-c2ccc(COc3ccc(Cl)cc3)o2)nc1C#N` (stereo not given), inactive: 3.93%.
Regarding `CCN(CC)c1nc2c(S(=O)(=O)c3cccc(Cl)c3)nnn2c2ccsc12`, the activation was inactive: -28.7%.
Consider `CCC(C)NC(=O)CSc1nc2c(sc3ccccc32)c(=O)n1CCc1ccc(OC)c(OC)c1` (stereo not given), for which the activation was inactive: -10.3%.
For the molecule `CCn1cc(C(=O)NCc2ccc(C)cc2)c(=O)c2cc(S(=O)(=O)N(C)C3CCCCC3)ccc21`, the activation is inactive: 28.2%.
For `CCc1ccc(CN(Cc2ccco2)C(=O)COc2ccc(Cl)c(C)c2)cc1`, the activation is inactive: -22.9%.
As for `Cc1cccc(OCC(O)Cn2c(=N)n(CCN3CCCCC3)c3ccccc32)c1` (stereo not given), the figure is inactive: 17.6%; as for `N#C/C(=C/c1cn(Cc2ccccc2Cl)c2ccccc12)C(=O)Nc1cccc(Cl)c1`, inactive: -4.56%.
As for `COc1ccc(OC)c(C2C(C(=O)N3CCCCC3)=C(C)Nc3nc4ccccc4n32)c1` (stereo not given), the figure is inactive: 0.0763%.
As for `COc1cc(NC(=O)N2CCC3(CC2)Nc2cc(F)ccc2-n2cccc23)cc(OC)c1OC`, the figure is inactive: -8.52%.
